# According to PubChem BioAssay AID1347073 (National Center for Advancing Translational Sciences (NCATS), 2019):
# The whole screen tested about 45,000 compounds, of which about 200 (0.44%) were called active. About 7% were inconclusive and are not listed. Calls follow the shape of the dose curve; as a rule, active = well fitted activation curve with a large enough effect; inconclusive = small, poorly fitted or top-dose-only effect; inactive = no such curve, though single readings can be large or run the other way. Some of the results follow.
# Test: qHTS of TDP-43 Inhibitors: NCGC Sytravon Library Screen; also: 0% is about no effect; nearly all actives have a fitted effect of over 55% in size
# Settings: yeast TDP-43 toxicity rescue, BacTiter-Glo growth, 24 h; series mostly up to 46.1 µM; growth rescue (activation): at the top concentration
# Procedure, shortened: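 TDP-43-expressing yeast, pregrown in raffinose, seeded at OD600 0.02 in galactose medium with compound for 24 hr at 30 deg C. Growth read by BacTiter-Glo luminescence, so rescue of toxicity appears as activation.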
row,Structure (SMILES),growth rescue (activation)
1,CCn1c2c(c(=N)c3c1CCC3)CCCC2,inactive: 8.49%
2,COc1ccc(C(=O)N[C@H](C(=O)NCCCSc2ccccc2)C(C)C)cc1,inactive: 1.66%
3,CCOC(=O)c1ccc2ncc(C(=O)OCC)c(NCCc3ccc(OC)c(OC)c3)c2c1,inactive: 14.6%
4,C/C(=N\NC(=O)CCCC(=O)O)c1c(-c2ccccc2)c2cc(Cl)ccc2[nH]c1=O,inactive: 5.69%
5,O=c1c2ccccc2oc2cc(OCc3ccc(F)cc3)cc(O)c12,inactive: 9.67%
6,CCc1nc2c(OCC(=O)C(C)(C)C)cccn2c1N(C)C(=O)c1ccc(C)cc1,inactive: 14%
7,COc1cc(NC(=O)Cn2ccsc2=N)c(C)cc1[N+](=O)[O-],inactive: -13.1%
8,COc1ccc(-n2nc(C(=O)NCC(=O)N3CCN(Cc4ccccc4)CC3)c3ccccc3c2=O)cc1OC,inactive: 8.03%
9,COCCn1c(C)cc(C(=O)CN2CCCCC2)c1C,inactive: 9.97%
10,COc1cc(C(=O)NCCc2ccc(F)cc2)c([N+](=O)[O-])cc1OC,inactive: 4.83%
11,Cc1ccccc1-c1nc(NC(=O)CSc2ncnc3sc4c(c23)CCCC4)ns1,inactive: -3.59%
12,O=C(CSc1nc(-c2ccccc2)cc(C(F)(F)F)n1)c1cccc([N+](=O)[O-])c1,inactive: 6.61%
13,COc1ccc(C(=O)Nc2nc3ccccc3s2)c(OC)c1,inactive: -34.6%
14,CC(=O)c1ccc(N(C(=O)CNC(=O)c2cccs2)C(C(=O)NCC2CCCO2)c2ccccc2)cc1 (centres undefined),inactive: -0.46%
15,Cc1cc(C(=O)N2CCCC(N3CCN(c4cccc(Cl)c4)CC3)C2)n(C)n1 (centres undefined),inactive: -3.51%
16,COCCCNC(=O)/C=C/c1c(Cl)cccc1Cl,inactive: 22.5%
17,NC(Cc1ccc(Cl)cc1)c1csc(NC(=O)NCC2CCCCC2)n1 (centres undefined),inactive: 16%
18,Cc1ccc(S(=O)(=O)N2CCN(c3c([N+](=O)[O-])cc(C(F)(F)F)cc3[N+](=O)[O-])CC2)cc1,inactive: -20%
19,COc1cccc(NC(=O)Nc2nnc([C@H]3C[C@H](O)[C@@H](CO)O3)s2)c1,inactive: -7.97%
20,O=C(NNC(=O)c1ccccc1Br)c1ccccc1Cl,inactive: 10.2%
21,COc1ccc(CN2C(=O)c3cccc4cccc(c34)C2=O)cc1,inactive: 0.488%
22,NC(=O)NCCN1CCN(c2ncc(C(F)(F)F)cc2Cl)CC1,inactive: -1.96%
23,Cc1cccc(N(CC(=O)NC2CCCC2)C(=O)CCC(=O)Nc2nc(C)cs2)c1,inactive: 7.46%
24,O=C(CCc1nnc(C2CCCCC2)o1)NCc1ccc(F)c(F)c1,inactive: 3.6%
25,COc1ccc(N(C(=O)c2snc(C(N)=O)c2N)C(C(=O)NCc2ccccc2)c2ccc(O)cc2)cc1 (centres undefined),inactive: -1.75%
26,CNC(=O)CSc1nc2cc(S(=O)(=O)Nc3ccccc3OC)ccc2o1,inactive: 10.8%
27,Cc1cc(S(=O)(=O)NCCc2ccccc2)ccc1-n1cnnn1,inactive: -3.7%

row,Structure (SMILES),growth rescue (activation)
1,COc1ccc(C2=NN(Cc3ccccc3)C3C(=O)NC(=O)C23)cc1 (centres undefined),inactive: -5.4%
2,C(=N/Nc1nccs1)/c1cccnc1,inactive: 16.1%
3,Cc1ccccc1Cn1c(=N)n(CC(=O)c2ccc([N+](=O)[O-])cc2)c2ccccc21,inactive: 2.57%
4,CCOc1cc(N2CCOCC2)c(OCC)cc1NC(=O)C(C)C,inactive: 1.77%
5,Cc1cccc(N(Cc2ccc(Cl)cc2)S(C)(=O)=O)c1,inactive: 17.9%
6,Cc1cc(C(C)(C)C)cc(C)c1S(=O)(=O)N1CC(=O)Nc2ccccc21,inactive: 20.8%
7,CC(NC(=O)c1ccc(CS(C)(=O)=O)cc1)c1ccc(-c2ccccc2)cc1 (centres undefined),inactive: 15.6%
8,O=C(O)CCNc1cc(N2CCN(C(=O)c3ccco3)CC2)c2noc3c2c1C(=O)c1ccccc1-3,inactive: -32.7%
9,COc1ccc(NS(=O)(=O)c2ccc(C(=O)N3CCCCCC3)cc2)cc1,inactive: -1.62%
10,CC(NC(=O)c1ccccc1Cl)C1CC2CCC1C2 (centres undefined),inactive: 15.5%
11,O=C(CSc1nc2ccc(Cl)cc2[nH]1)NCCc1ccc(Cl)cc1,inactive: 1.01%
12,O=C(CSc1ccccc1C(=O)O)NC1CCCCCC1,inactive: 5.61%
13,O=C(Nc1ccc(F)cc1)C1CC(=O)n2cnnc2N1 (centres undefined),inactive: -2.05%
14,NS(=O)(=O)c1ccc(CCNC(=O)CSc2ncnc3ccccc23)cc1,inactive: 2.54%
15,O=C(N/N=C/c1cn(-c2cccs2)nc1-c1ccccc1)c1ccccc1Cl,inactive: -1.65%
16,COc1ccc(C(=O)NC(C)c2nnc(SCC(=O)NC3=NCCS3)n2C)cc1 (centres undefined),inactive: -12.1%
17,O=C(NC(=S)Nc1ncccn1)c1ccc(F)cc1,inactive: 15.7%
18,OC(COc1ccc(F)cc1Cl)CN1CCc2ccccc2C1 (centres undefined),inactive: -1.25%
19,C/C(=N\NC(=O)Cn1cnc2ccccc21)c1cccs1,inactive: -3.16%
20,COc1cc(OC)cc(C(=O)N[C@H](C(=O)NNC(=O)c2ccc(Br)cc2)C(C)C)c1,inactive: 13.5%
21,COc1cc(NC(=O)c2cccs2)c(OC)cc1NC(=O)Nc1ccc(F)cc1,inactive: -4.41%
22,O=C(NCCCNC(=O)c1ccco1)c1ccc(F)cc1,inactive: 14.3%
23,NC(=O)NC(=O)COC(=O)c1ccc2noc(-c3ccccc3)c2c1,inactive: 9.18%
24,CCCNC(=O)C1(C)CCCN(C(=O)c2cccc(OC(F)(F)F)c2)C1 (centres undefined),inactive: -6.83%
25,Cn1cc(CN2CCCCC2c2ccccn2)c(-c2ccc3c(c2)OCCO3)n1 (centres undefined),inactive: -18.4%
26,Cc1ccsc1-c1nc(CN2CCN(C)C(=O)[C@@H]2C)c(C)o1,inactive: 18.8%
27,CSC1=NSC2=NC(=O)/C(=C/c3coc4ccccc4c3=O)C(=N)N12,inactive: -94.3%
